For 27 molecules, survival results are on record in PubChem BioAssay AID463173 (ICCB-Longwood Screening Facility, Harvard Medical School, 2010).

Among all 52,000 compounds or so, about 4,300 (8.3%) were called active. Cut-off read from the data, not from the text of the source: active = survival mostly below about 52% (no sharp cut-off); inactive = mostly above about 56%. The list shows a part of the results.

The test system of this test is DeltatarO mutant. The experiment in a line: S. aureus survival, RN4220 and DeltatarO strains – OD600, teichoic acid synthesis inhibitors, primary screen (AID 463173). As to conditions: S. aureus RN4220 wild type/DeltatarO growth, OD600, 18 h, active compounds read low, screened at 18.75 µg/mL (by protocol).
With `Cc1cc(=O)[nH]c2nnc(SCc3ccc(F)cc3)n12`, the survival is inactive: 78%.
For `CCOC(=O)c1ccc(-n2c(CCC(=O)O)ccc2-c2ccc(Br)cc2)cc1` the value was active: 19%; for `COc1ccc(Cn2c(SCC(=O)NCc3ccc(Cl)cc3)nc3ccsc3c2=O)cc1`, inactive: 85%; for `CC1CN(CN2C(=O)CCC2=O)CC(C)O1` (configuration not stated), inactive: 78%.
For `Cc1cc(Cl)ccc1OCC(=O)Nc1c(Cl)ccc2nsnc12` the value was inactive: 77%.
The value for `O=C(Nc1c(C(=O)N2CCN(c3ccccc3)CC2)oc2ccccc12)c1ccc(Br)o1` was inactive: 81%; that for `O=C(NCc1cccs1)c1ccc(Cn2c(SCc3ccccc3)nc3cccnc32)cc1` was inactive: 71%.
With `O=C(OCC1CCNCC1)c1ccc2c(c1)OCO2`, the survival is inactive: 94%.
For `COc1cccc(CNCCSc2nnnn2C)c1OCc1ccccc1Cl`, the survival is inactive: 65%.
For `Cc1nn2c(=O)cc(COC(=O)c3ccco3)nc2s1` the value was inactive: 89%; for `COc1cccc(CNS(=O)(=O)c2ccc3c(c2)CCN3C(=O)C2CCC2)c1`, inactive: 68%.
The value for `CCc1cc2ccccc2nc1Cl` was inactive: 56%; that for `O=C(Nc1ccc(F)cc1)N1CCN(c2ccccc2F)CC1` was inactive: 179%.
The value for `Cn1c(=O)c2c(nc(SCC(=O)Nc3ccccc3)n2Cc2ccccc2F)n(C)c1=O` was active: 43%.
With `CCOc1ccc(CNC(=O)CSc2cc(=O)n(CC)c3ccccc23)cc1`, the survival was inactive: 62%.
The value for `Nc1c(C(=O)Nc2ccc(OC(F)(F)F)cc2)nnn1Cc1ccccc1` was inactive: 83%; that for `COCCN(C(=O)c1ccccc1)c1nnc(-c2ccncc2)s1` was inactive: 94%.
For `CCc1cccc(C)c1Nc1c(-c2ccccc2)nc2sccn12` the value was inactive: 31%; for `Fc1ccc(CNc2ncnc3onc(-c4ccc(F)cc4)c23)cc1`, inactive: 91%; for `CCc1c(CN2CCN(c3cccc(C)c3C)CC2)csc1C`, inactive: 76%.
The value for `Cc1ccc(C#N)c(=O)n1CC(=O)Nc1ccccc1C(F)(F)F` was inactive: 162%; that for `O=C(C1COc2ccccc2O1)N(Cc1cccnc1)c1nc2ccc(Cl)cc2s1` (configuration not stated) was inactive: 76%.
For `CSC1=NC2(CCN(C(=O)NC3CCCCC3)CC2)N=C1c1ccc(C)cc1`, the survival was inactive: 67%.
For `COc1ccc(N2Cc3cccc(C(=O)Nc4cc(C)cc(C)c4)c3C2=O)cc1` the value was inactive: 80%; for `O=C(C1COc2ccccc2O1)N1CCN(c2nc3ccc(F)cc3s2)CC1` (configuration not stated), inactive: 88%; for `Cc1noc(-c2ccc(-c3noc(-c4cccc(F)c4)n3)cc2)n1`, inactive: 76%.
For `NC(=O)C1CCN(C(=O)c2cccc(NC(=O)c3nsc4ccccc34)c2)CC1` the value was inactive: 88%.
